The results in this text go back to article PMC4336329 (PLoS ONE, 2015).

In all, about 310,000 compounds went through this assay and about 14,000 (4.5%) showed an effect of 50% or more. The effect is printed as a negative number. The list shows a part of the results.
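Note: peak tail current of the secondary pulse compared with the same well before compound.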

Chain of human ether-à-go-go-related gene (hERG) potassium channel (Q12809 whole entry, looked up): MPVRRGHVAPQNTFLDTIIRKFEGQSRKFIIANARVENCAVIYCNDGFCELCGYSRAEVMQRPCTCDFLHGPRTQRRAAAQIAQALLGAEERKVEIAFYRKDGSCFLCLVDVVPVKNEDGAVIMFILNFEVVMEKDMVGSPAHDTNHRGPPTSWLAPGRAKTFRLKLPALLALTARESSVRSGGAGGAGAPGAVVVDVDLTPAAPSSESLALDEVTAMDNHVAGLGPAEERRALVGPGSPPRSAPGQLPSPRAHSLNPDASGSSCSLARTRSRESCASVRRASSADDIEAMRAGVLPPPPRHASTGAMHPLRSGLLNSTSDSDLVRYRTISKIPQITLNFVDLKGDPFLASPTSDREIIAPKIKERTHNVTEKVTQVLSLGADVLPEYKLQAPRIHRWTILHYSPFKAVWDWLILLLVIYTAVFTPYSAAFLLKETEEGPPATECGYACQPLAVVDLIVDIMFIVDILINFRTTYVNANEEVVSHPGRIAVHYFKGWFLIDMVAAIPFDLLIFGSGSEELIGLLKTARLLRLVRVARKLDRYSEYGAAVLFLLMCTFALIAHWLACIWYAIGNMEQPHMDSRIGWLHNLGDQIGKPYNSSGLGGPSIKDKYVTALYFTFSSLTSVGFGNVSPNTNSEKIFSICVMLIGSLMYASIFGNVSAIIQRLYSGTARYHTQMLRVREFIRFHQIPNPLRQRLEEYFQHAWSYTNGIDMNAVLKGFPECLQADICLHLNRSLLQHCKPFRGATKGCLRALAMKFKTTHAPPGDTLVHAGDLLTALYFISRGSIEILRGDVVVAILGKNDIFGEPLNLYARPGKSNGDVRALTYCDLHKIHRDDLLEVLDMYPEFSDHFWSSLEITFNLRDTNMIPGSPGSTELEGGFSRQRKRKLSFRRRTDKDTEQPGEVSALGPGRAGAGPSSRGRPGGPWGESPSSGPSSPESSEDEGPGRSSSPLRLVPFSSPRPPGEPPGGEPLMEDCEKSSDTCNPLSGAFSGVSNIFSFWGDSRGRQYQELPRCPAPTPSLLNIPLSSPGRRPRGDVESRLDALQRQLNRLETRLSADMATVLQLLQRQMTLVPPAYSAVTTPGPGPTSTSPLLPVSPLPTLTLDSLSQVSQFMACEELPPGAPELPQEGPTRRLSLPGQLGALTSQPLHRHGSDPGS

This test has as its target human ether-à-go-go-related gene (hERG) potassium channel (human, UniProt Q12809). The experiment in a line: primary screen, population patch clamp on CHO cells stably expressing hERG.
For the compound `O=[N+]([O-])c1cccc(S(=O)(=O)Nc2cccc(-c3ccc(N4CCOCC4)nn3)c2)c1`, the “hERG current change (%, negative = inhibition) at 10uM” value is given as -11.8%. For the compound `COc1ccc(OC)c(NC(=O)C2CCN(Cc3cnn(-c4ccccc4)c3-n3cccc3)CC2)c1`, the “hERG current change (%, negative = inhibition) at 10uM” value is -28.6%. Regarding `COc1ccc(CC(=O)Nc2nc(-c3ccc(F)c(F)c3)cs2)cc1`, the “hERG current change (%, negative = inhibition) at 10uM” value is recorded as -3.93%.

In the case of `O=C(Nc1cccc(-c2nn[nH]n2)c1)c1ccc(Br)s1`, the “hERG current change (%, negative = inhibition) at 10uM” value is 9.22%. To `Cc1cccc(-n2c(SCc3cc(=O)n4ccsc4n3)nc3ccccc32)c1` belongs -13%. Turning to `CC(C)N(C(=S)NCc1ccccc1)C(C)C`, the “hERG current change (%, negative = inhibition) at 10uM” value is given as -4.24%. With `CN(CC(O)CN)CC(O)CN1CCCCC1.Cl` (stereo not shown), the “hERG current change (%, negative = inhibition) at 10uM” value is given as 4.64%.

For the compound `CCN(CCCNS(=O)(=O)c1ccc2c(c1)CCN2C(C)=O)c1cccc(C)c1`, the “hERG current change (%, negative = inhibition) at 10uM” value is recorded as 6.72%. To `COCCN(C(=O)COC(=O)Cc1coc2cc3c(cc12)CCC3)c1c(N)n(Cc2ccccc2)c(=O)[nH]c1=O` belongs -18.4%; to `Cc1cccn2c(=O)c(/C=C(\C#N)C(=O)NC3CCS(=O)(=O)C3)c(Oc3ccc(F)cc3)nc12` (stereo not shown), -14.4%.

On to `CC1=C(C(=O)OCc2ccccc2)C(c2ccc(-c3ccccc3)cc2)NC(=O)N1CCCCCC(=O)O` (stereo not shown), for which the “hERG current change (%, negative = inhibition) at 10uM” value was -2.3%. Take `O=C(N/N=C\c1cn[nH]c1-c1ccccc1)c1ccc([N+](=O)[O-])cc1`: the “hERG current change (%, negative = inhibition) at 10uM” value was -64.9%. `COCCCn1c(Cc2ccccc2)nnc1SCC(=O)N1CCCCC1`: the “hERG current change (%, negative = inhibition) at 10uM” value is -16.1%. To `Cc1n[nH]c(=O)c2c(NC(=O)CSc3ccc(F)cc3)oc(C)c12` belongs 1.69%; to `COc1ccc(C(=O)Nc2ccc(S(=O)(=O)NC(C)(C)C)cc2)cc1[N+](=O)[O-]`, 28.1%; to `COc1ccccc1/C=C/CN1CCOCC1`, -3.9%. For `Cn1c(=O)c2cc(S(=O)(=O)NCCC(=O)N3CC=C(c4ccccc4)CC3)ccc2n(C)c1=O`, the “hERG current change (%, negative = inhibition) at 10uM” value is -42.1%. Turning to `COc1cc(Cl)c(C)cc1NC(=O)c1ccc(NS(=O)(=O)c2ccc(F)c(F)c2)cc1`, the “hERG current change (%, negative = inhibition) at 10uM” value is listed as 3.36%. The value for `CCCCCC(=O)Nc1cccc(C2=NOC3(C2)C[C@@H](C(N)=O)N(C(=O)c2cc([N+](=O)[O-])cc([N+](=O)[O-])c2)C3)c1` (stereo partly shown) was 7.75%; that for `Cc1cc(OC(=O)c2cccc(F)c2)c([N+](=O)[O-])c(=O)[nH]1` was -3.28%. Regarding `O=S(=O)(/C=C/c1ccccc1)Nc1ccc(F)cc1`, the “hERG current change (%, negative = inhibition) at 10uM” value is -9.4%. To `CC(C)Oc1ccc(C2CC(=O)N(c3ccc(N(C)C)cc3)C2=O)cc1` (stereo not shown) belongs 11.9%. The value for `O=C(NCc1cccnc1)c1ccc([N+](=O)[O-])cc1` was -17%; that for `CCSc1ccccc1C(=O)NC1CCCCC1` was 5.95%; that for `CCOc1cc(C2C3=C(CCCC3=O)Nc3ccc4ncccc4c32)ccc1O` (stereo not shown) was 7.64%. To `COc1ccc(N2CCN(C(=O)Cn3c(=O)[nH]c4ccsc4c3=O)CC2)cc1` belongs 3.63%; to `CC(=O)c1cccc(NC(=O)COC(=O)COc2ccccc2C)c1`, 10.8%; to `Cc1ccc(/C=C2\C(=O)NC(=S)N(c3ccc(F)cc3)C2=O)o1`, 24.7%.

For the compound `CC(c1ccccc1)n1cncc1C(=O)N1CCCC1=O.Cl` (stereo not shown), the “hERG current change (%, negative = inhibition) at 10uM” value was -6.62%. To `CC1CCN(S(=O)(=O)c2ccc(N=NC3=C(O)CC(C)(C)CC3=O)cc2)CC1` belongs 0.78%; to `Cc1ccc(N(c2ncnc(N)c2[N+](=O)[O-])C2CCCCC2)cc1`, -4.49%. The value for `CCOC(=O)CN1C(=O)CSc2ccccc21` was 0.699%. `C=CCN1N=C(/C=C/c2ccc(C)cc2)CCC1=O`: the “hERG current change (%, negative = inhibition) at 10uM” value was determined as 15.1%. The value for `COc1ccc(F)cc1S(=O)(=O)NCCCn1ccnc1` was 22.6%.

As for `Cc1cc(C)c(OC2(c3ccccc3)OC(=O)c3ccccc32)c(C)c1` (stereo not shown), the “hERG current change (%, negative = inhibition) at 10uM” value is listed as -5.57%.

For `CN1CCN(c2cc(N3CCCCCC3)c(F)cc2[N+](=O)[O-])CC1`, the “hERG current change (%, negative = inhibition) at 10uM” value is given as -25.7%.

Take `O=C(c1ccccn1)N1CCN(c2ccc(C(F)(F)F)cn2)CC1`: the “hERG current change (%, negative = inhibition) at 10uM” value is recorded as -14.2%.

With `Cc1cc(NC(=O)CCC(=O)NNC(=O)c2ccc(C(C)(C)C)cc2)no1`, the “hERG current change (%, negative = inhibition) at 10uM” value was 8.03%. The value for `O=S(=O)(c1ccc(Cl)cc1)n1cccn1` was 38.3%; that for `O=C(Nc1ccccc1Sc1ccccc1)c1ccc(F)cc1` was -7.65%; that for `Cc1ccc(-c2noc(CCC(=O)NC3CCCc4ccccc43)n2)cc1` (stereo not shown) was 3.69%.

As for `CC1CCN(c2ccc(NC(=O)Cn3c(=O)oc4ccccc43)cc2)CC1`, the “hERG current change (%, negative = inhibition) at 10uM” value is 6.81%. Consider `Cc1ccc(NC(=S)Nc2nc(CC(=O)Nc3ccccc3)cs2)cc1`, for which the “hERG current change (%, negative = inhibition) at 10uM” value was determined as 13%.

On to `O=C(CCCN1C(=O)/C(=C/c2ccccc2Cl)SC1=S)NNC(=O)c1ccncc1`, for which the “hERG current change (%, negative = inhibition) at 10uM” value was 2.34%. Regarding `CC1CCCN(C(=O)CCNC(=O)c2ccccc2Cl)C1` (stereo not shown), the “hERG current change (%, negative = inhibition) at 10uM” value worked out at 23.3%. Regarding `COc1ccc(NC(=O)c2cccc(N3C(=O)C4C5C=CC(C6CC56)C4C3=O)c2)cc1` (stereo not shown), the “hERG current change (%, negative = inhibition) at 10uM” value is 2.88%. `CCO[C@H]1OC(C(=O)NCc2nc3ccccc3[nH]2)=C[C@@H](c2ccc(C(F)(F)F)cc2)[C@@H]1CCCO`: the “hERG current change (%, negative = inhibition) at 10uM” value is reported as -8.5%. To `O=c1nc(N2CCOCC2)nc2n1CCO2` belongs 4.08%. Turning to `CCOC(=O)N/N=C\c1cccc(OC)c1`, the “hERG current change (%, negative = inhibition) at 10uM” value was 28.2%. Take `O=C(N=C1SC2CS(=O)(=O)CC2N1c1c(Cl)cccc1Cl)C1CC1` (stereo not shown): the “hERG current change (%, negative = inhibition) at 10uM” value stood at 19.1%.

For `Nc1ccccc1NC(=O)c1ccccc1`, the “hERG current change (%, negative = inhibition) at 10uM” value stood at 2.34%. As to `Cc1nc(SCC(=O)OCc2ccccc2)c2c(=O)n(C)c(=O)n(C)c2n1`, the “hERG current change (%, negative = inhibition) at 10uM” value is on record as 19.3%. For `O=C(c1cc2sccc2n1Cc1ccc(F)cc1)N1CCc2ccccc21`, the “hERG current change (%, negative = inhibition) at 10uM” value amounted to 14.5%. Take `Nc1c(N(CCC2=CCCCC2)C(=O)CCCOc2ccccc2)c(=O)[nH]c(=O)n1Cc1ccccc1`: the “hERG current change (%, negative = inhibition) at 10uM” value is recorded as -32.8%. With `Cc1ccc(SCCC(=O)Nc2ccccc2Br)cc1`, the “hERG current change (%, negative = inhibition) at 10uM” value stood at 12.8%.
